In the supplement of paper PMC8728848:
The list shows a part of the results.

Experiments:
Assay in all cases: glycan array binding signal (z-score within array); higher = stronger binding
Settings in all cases: glycan notation: IUPAC condensed, linker removed
[1] = target: Man(b1-4)GlcNAc
Outline: (§1)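 Glycan array binding is given as a within-array Z-score, which can be read as non-binding when negative. The arrays, 3228 of them, came from the Consortium for Functional Glycomics database and were retained only where the protein sequence was available. Z-scores were averaged across arrays of the same protein sequence at different concentrations or buffers and across linkers.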

[2] = target: MurNAc(b1-4)GlcNAc
Outline: as §1

[3] = target: Neu5Ac(a2-3)Gal
Outline: as §1

[4] = target: Neu5Ac(a2-3)Gal(b1-3)GalNAc
Outline: as §1

[5] = target: Neu5Ac(a2-3)Gal(b1-3)GalNAc(b1-3)Gal(a1-4)Gal(b1-4)Glc
Outline: as §1

[6] = target: Neu5Ac(a2-3)Gal(b1-3)GalNAc(b1-3)Gal(b1-4)GlcNAc
Outline: as §1

[7] = target: Neu5Ac(a2-3)Gal(b1-3)GalNAc(b1-4)[Neu5Ac(a2-3)]Gal(b1-4)Glc
Outline: as §1

[8] = target: Neu5Ac(a2-3)Gal(b1-3)GalNAc(b1-4)[Neu5Ac(a2-8)Neu5Ac(a2-3)]Gal(b1-4)Glc
Outline: as §1

[9] = target: Neu5Ac(a2-3)Gal(b1-3)GalNAc6S
Outline: as §1

[10] = target: Neu5Ac(a2-3)Gal(b1-3)GlcNAc
Outline: as §1

[11] = target: Neu5Ac(a2-3)Gal(b1-3)GlcNAc(b1-2)Man
Outline: as §1

[12] = target: Neu5Ac(a2-3)Gal(b1-3)GlcNAc(b1-2)Man(a1-3)[GlcNAc(b1-4)][Neu5Ac(a2-3)Gal(b1-3)GlcNAc(b1-2)Man(a1-6)]Man(b1-4)GlcNAc(b1-4)GlcNAc
Outline: as §1

[13] = target: Neu5Ac(a2-3)Gal(b1-3)GlcNAc(b1-2)Man(a1-3)[Neu5Ac(a2-3)Gal(b1-3)GlcNAc(b1-2)Man(a1-6)]Man(b1-4)GlcNAc(b1-4)GlcNAc
Outline: as §1

[14] = target: Neu5Ac(a2-3)Gal(b1-3)GlcNAc(b1-3)Gal(b1-3)GlcNAc
Outline: as §1

[15] = target: Neu5Ac(a2-3)Gal(b1-3)GlcNAc(b1-3)Gal(b1-4)GlcNAc
Outline: as §1

[16] = target: Neu5Ac(a2-3)Gal(b1-3)GlcNAc(b1-3)GalNAc
Outline: as §1

[17] = target: Neu5Ac(a2-3)Gal(b1-3)GlcNAc(b1-4)Gal(b1-4)Glc
Outline: as §1

[18] = target: Neu5Ac(a2-3)Gal(b1-3)GlcNAc(b1-6)GalNAc
Outline: as §1

[19] = target: Neu5Ac(a2-3)Gal(b1-3)GlcNAc6S
Outline: as §1

[20] = target: Neu5Ac(a2-3)Gal(b1-3)[Fuc(a1-4)]GlcNAc
Outline: as §1

[21] = target: Neu5Ac(a2-3)Gal(b1-3)[Fuc(a1-4)]GlcNAc(b1-3)Gal(b1-3)[Fuc(a1-4)]GlcNAc
Outline: as §1

[22] = target: Neu5Ac(a2-3)Gal(b1-3)[Fuc(a1-4)]GlcNAc(b1-3)Gal(b1-4)[Fuc(a1-3)]GlcNAc
Outline: as §1

[23] = target: Neu5Ac(a2-3)Gal(b1-3)[GlcNAc(b1-6)]GalNAc
Outline: as §1

[24] = target: Neu5Ac(a2-3)Gal(b1-3)[Neu5Ac(a2-3)Gal(b1-4)]GlcNAc
Outline: as §1

[25] = target: Neu5Ac(a2-3)Gal(b1-3)[Neu5Ac(a2-6)]GalNAc
Outline: as §1

[26] = target: Neu5Ac(a2-3)Gal(b1-3)[Neu5Ac(a2-6)]GlcNAc(b1-3)[Fuc(a1-3)[Gal(b1-4)]GlcNAc(b1-6)]Gal(b1-4)Glc
Outline: as §1

[27] = target: Neu5Ac(a2-3)Gal(b1-3)]Neu5Ac(a2-3)Gal(b1-4)]GlcNAc
Outline: as §1

[28] = target: Neu5Ac(a2-3)Gal(b1-4)Glc
Outline: as §1

[29] = target: Neu5Ac(a2-3)Gal(b1-4)GlcNAc
Outline: as §1

[30] = target: Neu5Ac(a2-3)Gal(b1-4)GlcNAc(b1-2)Man
Outline: as §1

[31] = target: Neu5Ac(a2-3)Gal(b1-4)GlcNAc(b1-2)Man(a1-3)[GlcNAc(b1-4)][Neu5Ac(a2-3)Gal(b1-4)GlcNAc(b1-2)Man(a1-6)]Man(b1-4)GlcNAc(b1-4)GlcNAc
Outline: as §1

[32] = target: Neu5Ac(a2-3)Gal(b1-4)GlcNAc(b1-2)Man(a1-3)[Neu5Ac(a2-3)Gal(b1-4)GlcNAc(b1-2)Man(a1-6)]Man(b1-4)GlcNAc(b1-4)GlcNAc
Outline: as §1

[33] = target: Neu5Ac(a2-3)Gal(b1-4)GlcNAc(b1-2)Man(a1-3)[Neu5Ac(a2-3)Gal(b1-4)GlcNAc(b1-2)Man(a1-6)]Man(b1-4)GlcNAc(b1-4)[Fuc(a1-6)]GlcNAc
Outline: as §1

[34] = target: Neu5Ac(a2-3)Gal(b1-4)GlcNAc(b1-2)Man(a1-3)[Neu5Ac(a2-6)Gal(b1-4)GlcNAc(b1-2)Man(a1-6)]Man(b1-4)GlcNAc(b1-4)GlcNAc
Outline: as §1

[35] = target: Neu5Ac(a2-3)Gal(b1-4)GlcNAc(b1-2)[Neu5Ac(a2-3)Gal(b1-4)GlcNAc(b1-4)]Man(a1-3)[GlcNAc(b1-4)][Neu5Ac(a2-3)Gal(b1-4)GlcNAc(b1-2)[Neu5Ac(a2-3)Gal(b1-4)GlcNAc(b1-6)]Man(a1-6)]Man(b1-4)GlcNAc(b1-4)GlcNAc
Outline: as §1

[36] = target: Neu5Ac(a2-3)Gal(b1-4)GlcNAc(b1-2)[Neu5Ac(a2-3)Gal(b1-4)GlcNAc(b1-4)]Man(a1-3)[GlcNAc(b1-4)][Neu5Ac(a2-3)Gal(b1-4)GlcNAc(b1-4)Man(a1-6)]Man(b1-4)GlcNAc(b1-4)GlcNAc
Outline: as §1

[37] = target: Neu5Ac(a2-3)Gal(b1-4)GlcNAc(b1-2)[Neu5Ac(a2-3)Gal(b1-4)GlcNAc(b1-6)]Man(a1-6)[Neu5Ac(a2-3)Gal(b1-4)GlcNAc(b1-2)Man(a1-3)]Man(b1-4)GlcNAc(b1-4)GlcNAc
Outline: as §1

B1: UEA-I (Ulex europaeus), P22972 (protein)
chain: SDDLSFKFKNFSQNGKDLSFQGDASVIETGVLQLNKVGNNLPDETGGIARYIAPIHIWNCNTGEVASFITSFSFFMETSANPKAATDGLTFFLAPPDSPLRRAGGYFGLFEDTKDNDSSYQTVAVEFDTIGSPVNFDDPGFPHIGIDVNRVKSINAERWNKRYGLNNVANVEIIYEASSKTLTASLTYPSDQTSISVTSIVDLKEILPEWVSVGFSGGTYIGRQATHEVLNWYFTSNLINTNS
glycan array binding signal (z-score) [1]: -0.166
glycan array binding signal (z-score) [2]: -0.174
glycan array binding signal (z-score) [3]: -0.214
glycan array binding signal (z-score) [4]: -0.245
glycan array binding signal (z-score) [5]: -0.164
glycan array binding signal (z-score) [6]: -0.245
glycan array binding signal (z-score) [7]: -0.251
glycan array binding signal (z-score) [8]: -0.163
glycan array binding signal (z-score) [9]: -0.189
glycan array binding signal (z-score) [10]: -0.234
glycan array binding signal (z-score) [11]: -0.19
glycan array binding signal (z-score) [12]: -0.182
glycan array binding signal (z-score) [13]: -0.027
glycan array binding signal (z-score) [14]: -0.177
glycan array binding signal (z-score) [15]: -0.274
glycan array binding signal (z-score) [16]: -0.222
glycan array binding signal (z-score) [17]: -0.206
glycan array binding signal (z-score) [18]: -0.271
glycan array binding signal (z-score) [19]: -0.14
glycan array binding signal (z-score) [20]: -0.236
glycan array binding signal (z-score) [21]: -0.176
glycan array binding signal (z-score) [22]: -0.203
glycan array binding signal (z-score) [23]: -0.216
glycan array binding signal (z-score) [24]: -0.122
glycan array binding signal (z-score) [25]: -0.198
glycan array binding signal (z-score) [26]: -0.11
glycan array binding signal (z-score) [27]: -0.181
glycan array binding signal (z-score) [28]: -0.108
glycan array binding signal (z-score) [29]: -0.214
glycan array binding signal (z-score) [30]: -0.144
glycan array binding signal (z-score) [31]: -0.26
glycan array binding signal (z-score) [32]: -0.203
glycan array binding signal (z-score) [33]: -0.234
glycan array binding signal (z-score) [34]: -0.209
glycan array binding signal (z-score) [35]: -0.276
glycan array binding signal (z-score) [36]: -0.292
glycan array binding signal (z-score) [37]: -0.198
